Read counts after selection give these values, which scatter widely.
System: NB7
Assay: fold depletion of shRNA, plasmid library share / infected cells without Dox share (9 days) (ratio); higher = more depleted after infection (more toxic, leaky expression from a Tet-inducible vector; NB7 is a neuroblastoma line without caspase-8)
[1] = shRNA pool: CD95 ORF + CD95 3'UTR + Venus libraries
[2] = shRNA pool: CD95L ORF + CD95L 3'UTR + Venus libraries
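Further: shRNA barcodes quantified by deep sequencing of PCR amplicons from cellular DNA, counts expressed as percent of each subpool, ratio averaged over two biological duplicates.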

| Sequence | fold depletion of shRNA [1] | fold depletion of shRNA [2] |
| --- | --- | --- |
| TACAGTTGAGACTCAGAACTT | 1.62 | – |
| TACATAGCAATGGTAAAATCA | 0.771 | – |
| TACATATTAGGAAAATATGGG | – | 0.853 |
| TACATGAGGAACTCTAAGTAT | – | 0.586 |
| TACATGGTTGTGACCTGAGGA | – | 8.87 |
| TACATTTTATCATTTATTAGC | 0.718 | – |
| TACCAAGTGCAGATGTAAACC | 1.08 | – |
| TACCAGCAGAACACCCCCATC | 1.05 | 1.53 |
| TACCAGCCAGATGCACACAGC | – | 0.723 |
| TACCAGGTGTTCTACACTCAT | – | 2.49 |
| TACCAGTCCGCCCTGAGCAAA | 0.921 | 1.83 |
| TACCAGTGCTGATCATTTATA | – | 0.612 |
| TACCATATTTCTAAACTTTGT | 1.07 | – |
| TACCCAAATAGGAGTGTATGC | 1.29 | – |
| TACCCATATCCCCAGATCTAC | – | 2.46 |
| TACCCCCAAGTTTCTAAGATT | 1.99 | – |
| TACCCCGACCACATGAAGCAG | 0.927 | 0.94 |
| TACCGCTGCCACCCCTGAAGA | – | 1.49 |
| TACCTACTTCTTTCTCAGGCA | 1.34 | – |
| TACCTCAAAGACCTTTGCACA | 2.22 | – |
| TACCTCAAGGGGGACTGTCTT | – | 2.17 |
| TACCTCTGATAATTCTAGAGA | 1.54 | – |
| TACCTCTGGTTCTTACGTCTG | 1.76 | – |
| TACCTGAGCTACCAGTCCGCC | 0.767 | – |
| TACCTGGAACCACCTAAAGAA | 1.17 | – |
| TACCTGGGGGCAGTGTTCAAT | – | 1.72 |

| Sequence | fold depletion of shRNA [1] | fold depletion of shRNA [2] |
| --- | --- | --- |
| TACGGCAAGCTGACCCTGAAG | 0.848 | 1.1 |
| TACGGCCTGCAGTGCTTCGCC | 0.315 | 0.313 |
| TACGTAATTAAATAATGTTTT | 0.851 | – |
| TACGTCCAGGAGCGCACCATC | 1.58 | 2.67 |
| TACGTCTGTTGCTAGATTATC | 5.24 | – |
| TACGTTTAAATATCTTTGAAA | 0.791 | – |
| TACTAACTGCTCTCAGAGAAA | 0.699 | – |
| TACTAATGATGTTTTCCTATA | – | 0.705 |
| TACTACAGTTGAGACTCAGAA | 1.01 | – |
| TACTACTATCCTACGTTTAAA | 0.777 | – |
| TACTAGTGACTCAGAAAATTC | 0.737 | – |
| TACTATCCTACGTTTAAATAT | 0.764 | – |
| TACTCTTGCAGAGAAAATTCA | 0.854 | – |
| TACTGGCTCAAAACTACCTAC | 1.28 | – |
| TACTGGGTACATTTTATCATT | 0.814 | – |
| TACTGTATGTGAACACTGTGA | 1.58 | – |
| TACTTAATAGTCCACCAAAAG | 1.99 | – |
| TACTTCCGGGGTCAATCTTGC | – | 1.06 |
| TACTTCTTTCTCAGGCATCAA | 1.55 | – |
| TACTTTGTATATTCCAAAGTA | – | 0.401 |
| TAGAAAACATTAAATTATAAT | 1.3 | – |
| TAGAAATTCTAGCCTGGTTTG | 0.587 | – |
| TAGAACTCTGGGCTGCCATGT | – | 1.91 |
| TAGAAGTGGAAATAAACTGCA | 1.4 | – |
| TAGAGGCTTGCATAATAAGCT | – | 7.6 |
| TAGAGTGAAAAACAACAAATT | 0.592 | – |

| Sequence | fold depletion of shRNA [1] | fold depletion of shRNA [2] |
| --- | --- | --- |
| TAGATATTGTGAAGTACATAT | – | 0.573 |
| TAGATTCTTATTTTTCCCCCA | 1.32 | – |
| TAGATTGTGTGATGAAGGACA | 15.7 | – |
| TAGATTTTTAATATCTCATGA | 1.09 | – |
| TAGCAATGGTAAAATCATCAT | 1.44 | – |
| TAGGAAAATATGGGTTGCATT | – | 3.93 |
| TAGGAGTGTATGCAGAGGATG | 1.83 | – |
| TAGGGGTGTGTGTGTGTGTGT | – | 1.17 |
| TAGGTAAAAGTACGTAATTAA | 0.915 | – |
| TAGTACAAATGTCTATCCACA | 1.05 | – |
| TAGTATGAATGTAATCAGTGT | 2.14 | – |
| TAGTGACTCAGAAAATTCAAA | 0.835 | – |
| TAGTGCCTGAGAGTATTTAGG | – | 0.815 |
| TAGTGCTTAAAAATCATTGAT | – | 1.15 |
| TAGTGTTTGAAAAGATTCTTA | 0.841 | – |
| TAGTTATAAACTGAAGCAGAT | 1.09 | – |
| TAGTTGGGAAAACAAACTTCA | 4.77 | – |
| TATAAAATATAGGTAAAAGTA | 0.811 | – |
| TATAAACTGAAGCAGATACCT | 0.884 | – |
| TATAACTCTGAGAAGATCATA | 1.3 | – |
| TATAAGAAGGGTGGCCTTGTG | – | 3.88 |
| TATAATAAATATTTATGTAGA | – | 1.05 |
| TATAATATAATAAATATTTAT | – | 1.47 |
| TATAATGTTTGACTATTATAT | 0.874 | – |
| TATACAATATTTCAATTGTGA | 0.848 | – |
| TATACATAGCAATGGTAAAAT | 0.907 | – |

| Sequence | fold depletion of shRNA [1] | fold depletion of shRNA [2] |
| --- | --- | --- |
| TATAGGTAAAAGTACGTAATT | 0.921 | – |
| TATATATGTGTATGCATTTTA | 1.19 | – |
| TATATCACCACTATTGCTGGA | 1.61 | – |
| TATATCACCGCCGACAAGCAG | 1.57 | 1.29 |
| TATATGCAATTAGTGTTTGAA | 1.85 | – |
| TATATGTATTTGAGTGCAGAA | 1.57 | – |
| TATATGTCAACGTATCTGAGC | – | 1.73 |
| TATATGTGTATGCATTTTACT | 1.72 | – |
| TATATTCCAAAGTATACTTCC | – | 0.514 |
| TATATTTCTGTAAATGTAAAC | 1.49 | – |
| TATCACCAAAAAATACTTAAT | 1.16 | – |
| TATCACCACTATTGCTGGAGT | 1.76 | – |
| TATCACCGCCGACAAGCAGAA | 1.26 | 2.37 |
| TATCATCCTCAAGGACATTAC | 1.98 | – |
| TATCATTTATTAGCGCTGAAG | 2.46 | – |
| TATCCCCAGATCTACTGGGTG | – | 1.65 |
| TATCCTACGTTTAAATATCTT | 0.622 | – |
| TATCCTGAGCCATCGGTGAAA | – | 0.868 |
| TATCGTCCAAAAGTGTTAATG | 3.68 | – |
| TATCTCATGATTCTGCCTCCA | 2.53 | – |
| TATCTGAGCTCTCTCTGGTCA | – | 3.1 |
| TATCTGATGTTGACTTGAGTA | 2.07 | – |
| TATCTTTGAAAGTTTGTATTA | 0.873 | – |
| TATGAATCAATAGAAGAAGCT | 0.791 | – |
| TATGAATGTAATCAGTGTATG | 1.1 | – |
| TATGACACATTGATTAAAGAT | 1.39 | – |

| Sequence | fold depletion of shRNA [1] | fold depletion of shRNA [2] |
| --- | --- | --- |
| TATGACCTTTTGCTGAAATAT | 2.76 | – |
| TATGACGGAAGAACATAGAAC | – | 2.55 |
| TATGACTAAAGAGAGAATGTA | – | 0.643 |
| TATGATTCTGTAGTATGAATG | 1.73 | – |
| TATGATTCTTTGTTACAGGCA | – | 2.1 |
| TATGCAATTAGTGTTTGAAAA | 1.63 | – |
| TATGCAGAGGATGAAAGATTA | 0.987 | – |
| TATGCATTTTACTGGCTCAAA | 3.17 | – |
| TATGCTCTGGCATCTAACATA | 1.73 | – |
| TATGGAATTGTCCTGCTTTCT | – | 1.07 |
| TATGGGTTGCATTTGGTCAAG | – | 0.688 |
| TATGTAAAGTATATGTATTTG | 0.912 | – |
| TATGTAGATGTGCATTTTTGT | – | 7.23 |
| TATGTATTTGAGTGCAGAATT | 1.28 | – |
| TATGTCAACGTATCTGAGCTC | – | 4.67 |
| TATGTGAACACTGTGACCCTT | 2.71 | – |
| TATGTGTATGCATTTTACTGG | 1.12 | – |
| TATGTTAGTACAAATGTCTAT | 1.16 | – |
| TATTAAATGTGAATTTTAAGA | 1.13 | – |
| TATTACTAGAGCTTTGCCACC | 0.525 | – |
| TATTAGGAAAATATGGGTTGC | – | 1.63 |
| TATTATACAATATTTCAATTG | 1.48 | – |
| TATTATATATGTGTATGCATT | 1.47 | – |
| TATTCAGTGAGGGTCTTCTTA | – | 3.57 |
| TATTCCAAAGTATACTTCCGG | – | 1.9 |
| TATTGCTGGAGTCATGACACT | 2.09 | – |

| Sequence | fold depletion of shRNA [1] | fold depletion of shRNA [2] |
| --- | --- | --- |
| TATTGGTGTCATATTATACAA | 0.821 | – |
| TATTGTGAAGTACATATTAGG | – | 1.05 |
| TATTTAGGCAGATTGAAAAGG | – | 2.06 |
| TATTTATATTTCTGTAAATGT | 0.734 | – |
| TATTTATGTAAAGTATATGTA | 1.01 | – |
| TATTTATGTAGATGTGCATTT | – | 0.918 |
| TATTTCAATTGTGAATTCACA | 0.966 | – |
| TATTTCTAAACTTTGTTTATA | 0.89 | – |
| TATTTCTGTAAATGTAAACTG | 1.29 | – |
| TATTTGAGTGCAGAATTTAAA | 1.05 | – |
| TATTTGTAGATTTTTAATATC | 0.857 | – |
| TATTTTTCCCCCACCCCCGAA | 2.55 | – |
| TCAAAAAAGCCAATCTTTGTA | 0.962 | – |
| TCAAAACTACCTACTTCTTTC | 2.84 | – |
| TCAAAAGCATTTTGAGCAGGA | 1.21 | – |
| TCAAAATGTCTGTAGCTCCTC | – | 4.8 |
| TCAAACTTCAGAAATGAAATC | 0.865 | – |
| TCAAAGATGATAAAATAGATT | 1.05 | – |
| TCAAAGGAGGCCACCACCACC | – | 6.52 |
| TCAACGTATCTGAGCTCTCTC | – | 1.97 |
| TCAACTCACCTAATGTTTATG | – | 1.74 |
| TCAACTCTAATAGTGCTTAAA | – | 0.485 |
| TCAACTGCTTCGTAATTGGCA | 1.44 | – |
| TCAACTTCATGGAAAGAAAGA | 0.84 | – |
